In a collection of fitness landscapes (doi:10.1126/science.1257360) one finds enrichment ratio data, which are given here for 153 variants.

To fix the notation:
B1: PhoQ; a variant is named by its letters at X, in order, P23837 (parent)
chain: MKKLLRLFFPLSLRVRFLLATAAVVLVLSLAYGMVALIGYSVSFDKTTFRLLRGESNLFYTLAKWENNKLHVELPENIDKQSPTMTLIYDENGQLLWAQRDVPWLMKMIQPDWLKSNGFHEIEADVNDTSLLLSGDHSIQQQLQEVREDDDDAEMTHSVAVNVYPATSRMPKLTIVVVDTIPVELKSSYMVWSWFIYVLSANLLLVIPLLWVAAWWSLRPIEALAKEVRELEEHNRELLNPATTRELTSLVRNLNRLLKSERERYDKYRTTLTDLTHSLKTPLXXLQXXLRSLRSEKMSVSDAEPVMLEQISRISQQIGYYLHRASMRGGTLLSRELHPVAPLLDNLTSALNKVYQRKGVNISLDISPEISFVGEQNDFVEVMGNVLDNACKYCLEFVEISARQTDEHLYIVVEDDGPGIPLSKREVIFDRGQRVDTLRPGQGVGLAVAREITEQYEGKIVAGESMLGGARMEVIFGRQHSAPKDE

The other results are listed elsewhere or left out. Where only a bound is given, the exact number is not on record here.

In this assay the parent is B1. The assay can be described thus: enrichment ratio after two sorts for PhoP signalling (ratio (wild type AVST 3.29)); higher = more functional. The settings on record: with PhoP (E. coli).
As for QNQL, the enrichment ratio is no more than 0.25. As for GLPT, the figure is no more than 0.25; as for MYRV, no more than 0.25; as for VTNK, no more than 0.25.

Turning to NKTM, the enrichment ratio is no more than 0.25.

With NKRM, the enrichment ratio is no more than 0.25. As for RQCC, the figure is no more than 0.25; as for WNAG, no more than 0.25; as for RRVD, no more than 0.25. As for TFHI, the figure is no more than 0.25; as for TNIW, no more than 0.25; as for PMPL, no more than 0.25.

Turning to SWYR, the enrichment ratio is no more than 0.25. As for MFAY, the figure is no more than 0.25; as for TTEP, no more than 0.25. As for PWHD, the figure is no more than 0.25. As for VKAM, the figure is no more than 0.25; as for LLLR, no more than 0.25. For the variant FNMN, the enrichment ratio was no more than 0.25. As for YQYK, the figure is no more than 0.25; as for TWQP, no more than 0.25. On to YAHC, for which the enrichment ratio was no more than 0.25.

On to YQFM, for which the enrichment ratio is no more than 0.25.

On to GSVH, for which the enrichment ratio was no more than 0.25. Next, HLIC: no more than 0.25; GSRF: 0.652; LTGF: no more than 0.25.

As for DTQQ, the enrichment ratio is no more than 0.25. On to IEIN, for which the enrichment ratio was no more than 0.25. For the variant PHRC, the enrichment ratio is no more than 0.25. Next, LHDK: no more than 0.25. As for MTFQ, the figure is 4.54; as for IRPN, no more than 0.25. As for WDVG, the figure is no more than 0.25; as for MNVC, no more than 0.25; as for STRT, no more than 0.25. Regarding EMMM, the enrichment ratio is no more than 0.25. Next, AISF: 13.4; TRLN: 4.05; RPYW: no more than 0.25. In the case of AEGN, the enrichment ratio was 12.2. As for TEND, the figure is 23.1; as for QGSA, 4.04. Next, IEFF: no more than 0.25. As for VGAN, the figure is no more than 0.25. With LTRL, the enrichment ratio is no more than 0.25.

VILT: the enrichment ratio was no more than 0.25. In the case of YSNC, the enrichment ratio is no more than 0.25. As for ASTM, the figure is 12.3. Next, DRCH: no more than 0.25; DKYV: no more than 0.25. Next, VNDG: no more than 0.25. With WLNK, the enrichment ratio was no more than 0.25.

On to DSLY, for which the enrichment ratio is no more than 0.25.

Consider SLRS, for which the enrichment ratio is no more than 0.25. As for TCFM, the figure is no more than 0.25.

DIHA: the enrichment ratio was no more than 0.25.

As for KLMH, the enrichment ratio was found to be 1.9. As for LRTQ, the figure is no more than 0.25; as for NHNC, no more than 0.25. Next, RIID: no more than 0.25; QIDD: no more than 0.25; SYMM: 0.307.

Consider VIAF, for which the enrichment ratio is no more than 0.25. Next, MSLA: 5.33; HDTM: no more than 0.25; PGNN: no more than 0.25.

Regarding KMGT, the enrichment ratio was no more than 0.25. As for KDTM, the figure is no more than 0.25. Take DDCP: the enrichment ratio is no more than 0.25. As for SRVG, the figure is no more than 0.25. Consider RCLE, for which the enrichment ratio is no more than 0.25. Next, MPTG: no more than 0.25; PRFA: no more than 0.25; QTHR: no more than 0.25. SFYW: the enrichment ratio was no more than 0.25.

For the variant MMDV, the enrichment ratio is no more than 0.25. As for QRTG, the figure is no more than 0.25; as for DVWH, no more than 0.25; as for PHAM, no more than 0.25. Next, FWMP: no more than 0.25; FGKP: no more than 0.25. As for APAV, the enrichment ratio is no more than 0.25. As for LMRW, the figure is no more than 0.25. Next, HNSI: no more than 0.25; WTWD: no more than 0.25.

On to HDNP, for which the enrichment ratio is no more than 0.25. CDLS: the enrichment ratio is no more than 0.25. As for QQAH, the figure is no more than 0.25. As for EMPA, the figure is no more than 0.25; as for ASGK, no more than 0.25; as for AMRT, no more than 0.25. As for MYHA, the figure is no more than 0.25.

Turning to TLEW, the enrichment ratio is no more than 0.25. As to PKVW, the enrichment ratio was no more than 0.25. For VHTQ, the enrichment ratio is no more than 0.25. Turning to WQHH, the enrichment ratio was no more than 0.25. Take FETS: the enrichment ratio is no more than 0.25. With VWEK, the enrichment ratio was no more than 0.25. Next, SKYY: no more than 0.25; HARK: no more than 0.25; FFLI: no more than 0.25. As for HTCI, the figure is no more than 0.25. Regarding EFFR, the enrichment ratio was no more than 0.25. Consider HFAH, for which the enrichment ratio is no more than 0.25. Next, MEDN: no more than 0.25.

For the variant VCCQ, the enrichment ratio was no more than 0.25.

Regarding RERD, the enrichment ratio is no more than 0.25. Consider GHTD, for which the enrichment ratio was no more than 0.25. On to PRCV, for which the enrichment ratio was no more than 0.25. Next, DFFR: no more than 0.25. Next, YSEM: no more than 0.25. Next, PSHD: 2.1. For the variant PVRY, the enrichment ratio is no more than 0.25. As for VFYC, the figure is no more than 0.25; as for VVSL, no more than 0.25.

Consider PNMI, for which the enrichment ratio was no more than 0.25. Next, VQSD: no more than 0.25; YCWR: no more than 0.25. As for LEHY, the figure is no more than 0.25. As for SNAG, the figure is 6.91.

As for DNTK, the enrichment ratio was no more than 0.25. With DHCV, the enrichment ratio is no more than 0.25. As for IDWF, the figure is no more than 0.25; as for GNTP, no more than 0.25. On to QATT, for which the enrichment ratio was no more than 0.25.

Turning to PIHI, the enrichment ratio is no more than 0.25. Next, ICGI: no more than 0.25.

In the case of GNQC, the enrichment ratio is no more than 0.25. On to KHKC, for which the enrichment ratio was no more than 0.25. Take TWNM: the enrichment ratio is no more than 0.25. For the variant DWMA, the enrichment ratio was no more than 0.25. Next, GIGV: no more than 0.25; GERS: no more than 0.25. On to TWKV, for which the enrichment ratio is no more than 0.25.

On to NCGN, for which the enrichment ratio is no more than 0.25.

In the case of NCIL, the enrichment ratio was no more than 0.25.

On to HNWM, for which the enrichment ratio was no more than 0.25. In the case of FSCN, the enrichment ratio was no more than 0.25. As for YRDI, the figure is no more than 0.25.

SAQN: the enrichment ratio was no more than 0.25.

For SYTP, the enrichment ratio was no more than 0.25.

As for WPWC, the enrichment ratio is no more than 0.25. As for PYCH, the figure is no more than 0.25. Next, SPIL: no more than 0.25. As for PTIG, the figure is no more than 0.25; as for MRYP, no more than 0.25. For RQLQ, the enrichment ratio was no more than 0.25. As for LSYA, the figure is no more than 0.25; as for VWGY, no more than 0.25; as for MNDD, no more than 0.25. GRWI: the enrichment ratio was no more than 0.25. Next, IRWP: no more than 0.25.
